# Reference: publication PMC4460025
# Sequences of proteins named here, by UniProt entry; tags and fusion partners are left off. A change or cut given only in a name is not applied to a line headed by its entry.
# UniProt Q5TH69: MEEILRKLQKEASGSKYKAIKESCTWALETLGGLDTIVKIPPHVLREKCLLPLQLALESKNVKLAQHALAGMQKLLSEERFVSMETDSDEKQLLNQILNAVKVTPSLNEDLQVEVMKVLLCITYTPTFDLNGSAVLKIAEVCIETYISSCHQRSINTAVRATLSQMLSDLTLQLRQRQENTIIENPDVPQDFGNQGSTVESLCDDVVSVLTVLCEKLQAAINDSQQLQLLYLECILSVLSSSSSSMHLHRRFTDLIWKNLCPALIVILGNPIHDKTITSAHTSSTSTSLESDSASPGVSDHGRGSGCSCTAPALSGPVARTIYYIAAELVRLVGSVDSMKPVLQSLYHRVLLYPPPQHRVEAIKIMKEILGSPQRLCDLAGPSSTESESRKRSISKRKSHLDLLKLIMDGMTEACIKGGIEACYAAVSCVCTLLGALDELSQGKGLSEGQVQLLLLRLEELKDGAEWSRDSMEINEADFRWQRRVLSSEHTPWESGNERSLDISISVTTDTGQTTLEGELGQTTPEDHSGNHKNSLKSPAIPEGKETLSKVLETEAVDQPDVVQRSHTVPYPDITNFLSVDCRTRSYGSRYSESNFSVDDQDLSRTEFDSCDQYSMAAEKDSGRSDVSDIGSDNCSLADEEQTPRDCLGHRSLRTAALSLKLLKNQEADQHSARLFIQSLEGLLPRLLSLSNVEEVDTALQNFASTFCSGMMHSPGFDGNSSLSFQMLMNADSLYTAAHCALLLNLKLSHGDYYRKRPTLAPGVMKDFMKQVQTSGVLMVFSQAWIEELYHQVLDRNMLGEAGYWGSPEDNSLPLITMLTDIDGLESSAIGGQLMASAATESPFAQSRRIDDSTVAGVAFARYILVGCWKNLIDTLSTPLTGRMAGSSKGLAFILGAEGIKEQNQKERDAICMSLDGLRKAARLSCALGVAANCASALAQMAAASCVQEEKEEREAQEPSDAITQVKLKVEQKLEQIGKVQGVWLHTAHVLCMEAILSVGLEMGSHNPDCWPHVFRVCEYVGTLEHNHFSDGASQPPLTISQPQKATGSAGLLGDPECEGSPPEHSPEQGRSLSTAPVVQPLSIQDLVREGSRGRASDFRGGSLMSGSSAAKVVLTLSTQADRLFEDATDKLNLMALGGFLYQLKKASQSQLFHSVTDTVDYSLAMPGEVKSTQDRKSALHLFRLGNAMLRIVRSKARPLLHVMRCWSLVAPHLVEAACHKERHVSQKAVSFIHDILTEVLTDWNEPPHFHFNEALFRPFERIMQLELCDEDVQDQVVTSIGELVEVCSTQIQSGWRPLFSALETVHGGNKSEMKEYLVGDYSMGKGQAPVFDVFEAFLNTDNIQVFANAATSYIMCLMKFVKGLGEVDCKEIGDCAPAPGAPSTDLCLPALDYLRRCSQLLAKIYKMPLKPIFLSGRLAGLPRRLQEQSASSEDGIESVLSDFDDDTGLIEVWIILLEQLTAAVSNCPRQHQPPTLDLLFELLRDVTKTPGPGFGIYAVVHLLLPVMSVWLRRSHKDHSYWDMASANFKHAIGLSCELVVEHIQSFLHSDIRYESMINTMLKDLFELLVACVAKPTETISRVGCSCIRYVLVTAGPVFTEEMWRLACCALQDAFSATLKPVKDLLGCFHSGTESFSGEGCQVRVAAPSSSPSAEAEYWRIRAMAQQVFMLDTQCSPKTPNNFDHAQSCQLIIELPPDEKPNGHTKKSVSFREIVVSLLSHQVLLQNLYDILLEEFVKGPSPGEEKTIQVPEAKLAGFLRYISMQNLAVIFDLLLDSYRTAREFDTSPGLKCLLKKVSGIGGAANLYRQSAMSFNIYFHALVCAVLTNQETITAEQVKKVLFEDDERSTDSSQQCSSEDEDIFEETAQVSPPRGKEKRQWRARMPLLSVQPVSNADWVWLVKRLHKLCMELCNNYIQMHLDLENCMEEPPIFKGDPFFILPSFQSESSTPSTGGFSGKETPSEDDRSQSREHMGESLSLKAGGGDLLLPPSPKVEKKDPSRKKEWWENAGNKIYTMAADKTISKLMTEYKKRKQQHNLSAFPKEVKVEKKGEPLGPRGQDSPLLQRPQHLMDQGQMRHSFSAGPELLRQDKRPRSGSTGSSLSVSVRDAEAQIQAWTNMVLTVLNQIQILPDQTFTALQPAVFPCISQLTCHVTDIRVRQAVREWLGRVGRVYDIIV
# UniProt O15131: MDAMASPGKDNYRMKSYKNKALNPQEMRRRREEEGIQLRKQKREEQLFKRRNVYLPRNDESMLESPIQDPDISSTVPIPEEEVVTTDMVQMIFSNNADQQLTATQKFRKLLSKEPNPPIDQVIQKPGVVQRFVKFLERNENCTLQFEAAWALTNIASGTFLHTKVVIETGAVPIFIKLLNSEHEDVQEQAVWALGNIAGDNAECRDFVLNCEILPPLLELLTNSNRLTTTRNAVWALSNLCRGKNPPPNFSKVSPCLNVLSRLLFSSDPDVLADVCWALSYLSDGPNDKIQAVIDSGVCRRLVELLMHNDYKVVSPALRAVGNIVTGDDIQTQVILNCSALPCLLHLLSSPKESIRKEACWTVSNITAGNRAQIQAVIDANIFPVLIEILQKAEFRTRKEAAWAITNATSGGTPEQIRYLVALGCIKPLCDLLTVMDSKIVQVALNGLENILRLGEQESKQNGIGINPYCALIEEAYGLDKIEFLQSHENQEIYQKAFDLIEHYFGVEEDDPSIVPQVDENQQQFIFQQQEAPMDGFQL
# UniProt P52294: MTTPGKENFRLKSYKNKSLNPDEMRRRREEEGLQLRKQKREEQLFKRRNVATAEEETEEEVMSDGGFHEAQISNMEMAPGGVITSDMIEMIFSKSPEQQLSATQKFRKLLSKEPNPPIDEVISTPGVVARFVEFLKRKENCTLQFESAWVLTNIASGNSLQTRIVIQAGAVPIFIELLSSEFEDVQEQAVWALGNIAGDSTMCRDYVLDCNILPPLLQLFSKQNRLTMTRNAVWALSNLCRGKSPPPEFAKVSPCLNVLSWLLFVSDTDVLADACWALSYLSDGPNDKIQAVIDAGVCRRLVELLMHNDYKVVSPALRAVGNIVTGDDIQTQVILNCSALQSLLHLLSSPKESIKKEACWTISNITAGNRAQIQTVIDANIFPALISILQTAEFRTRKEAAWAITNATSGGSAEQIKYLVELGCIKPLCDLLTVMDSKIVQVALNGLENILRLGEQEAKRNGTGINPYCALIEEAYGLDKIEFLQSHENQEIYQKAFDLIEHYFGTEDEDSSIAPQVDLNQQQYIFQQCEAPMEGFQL
# UniProt Q99623: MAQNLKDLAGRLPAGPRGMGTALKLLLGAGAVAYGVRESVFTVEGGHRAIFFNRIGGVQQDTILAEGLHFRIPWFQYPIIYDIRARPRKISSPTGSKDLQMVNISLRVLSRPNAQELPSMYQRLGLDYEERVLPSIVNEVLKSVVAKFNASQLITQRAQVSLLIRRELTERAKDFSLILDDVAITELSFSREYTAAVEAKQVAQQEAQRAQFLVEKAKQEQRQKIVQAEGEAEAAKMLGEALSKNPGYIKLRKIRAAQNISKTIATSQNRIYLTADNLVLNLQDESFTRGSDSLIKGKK
# UniProt P03372: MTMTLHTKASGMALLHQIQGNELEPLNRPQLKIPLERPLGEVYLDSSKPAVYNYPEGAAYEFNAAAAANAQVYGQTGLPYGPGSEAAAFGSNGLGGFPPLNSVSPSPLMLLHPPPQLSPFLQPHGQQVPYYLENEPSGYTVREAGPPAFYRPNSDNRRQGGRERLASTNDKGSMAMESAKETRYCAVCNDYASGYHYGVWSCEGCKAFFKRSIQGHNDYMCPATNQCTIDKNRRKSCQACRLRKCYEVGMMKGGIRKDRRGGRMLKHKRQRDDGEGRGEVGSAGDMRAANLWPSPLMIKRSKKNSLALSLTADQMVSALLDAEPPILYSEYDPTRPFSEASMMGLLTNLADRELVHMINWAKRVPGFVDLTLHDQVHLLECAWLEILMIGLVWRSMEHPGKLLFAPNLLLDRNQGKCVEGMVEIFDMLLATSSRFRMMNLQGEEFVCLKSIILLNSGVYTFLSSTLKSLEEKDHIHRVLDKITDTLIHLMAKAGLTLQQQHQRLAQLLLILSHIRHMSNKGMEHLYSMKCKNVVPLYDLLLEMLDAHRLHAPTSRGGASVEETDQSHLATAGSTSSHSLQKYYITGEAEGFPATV
# Results are given in words; binding and its absence hold for the method and conditions named. Binding seen in cells or lysates may run through a third protein. Some entries that bind do so weakly or less than the wild type.
# How the values were obtained:
# FLAG-BIG3 = FLAG-BIG3 (UniProt Q5TH69); assay: co-IP; HEK293T cells co-transfected with partial HA-PHB2 constructs and FLAG-BIG3; 48 h; lysates immunoprecipitated with anti-FLAG antibody; immunoblot
# [1] = biological target: FLAG-tagged KPNA6 (human) (UniProt O60684); assay: co-IP; COS-7 cells co-transfected with HA-PHB2 constructs and FLAG-KPNAs; 48 h; 0.1% NP-40 lysis buffer; anti-FLAG M2 agarose 12 h at 4°C, eluted with 3x FLAG-peptide; immunoblot with anti-HA
# [2] = biological target: FLAG-tagged KPNA5 (human) (UniProt O15131); assay: as above
# [3] = biological target: FLAG-tagged KPNA1 (human) (UniProt P52294); assay: as above
# [4] = biological target: endogenous PHB2 (human (endogenous in MCF-7)) (UniProt Q99623); assay: co-IP; MCF-7 cells treated with 10 nM E2 ± 10 μM ERAP for 1, 6 and 24 h, separated into cytoplasmic and nuclear fractions; each fraction immunoprecipitated with anti-PHB2 antibody; immunoblot of endogenous proteins
# [5] = biological target: endogenous PHB2 (human (endogenous in MCF-7)) (UniProt Q99623); assay: co-IP; MCF-7 cells treated with siKPNAs followed by E2 ± ERAP for 24 h; lysates immunoprecipitated with anti-PHB2 antibody; immunoblot with antibodies against each KPNA
# [6] = biological target: endogenous estrogen receptor alpha (ERα) (human (endogenous in MCF-7)) (UniProt P03372); assay: co-IP; MCF-7 cytoplasmic and nuclear fractions immunoprecipitated with anti-ERα antibody; cells treated with E2 ± ERAP (1, 6, 24 h), with siBIG3 and/or siKPNAs; immunoblot of endogenous proteins
Substance,binding (FLAG-BIG3),binding [1],binding [2],binding [3],binding [4],binding [5],binding [6]
HA-PHB2 (1–189) (from UniProt Q99623 1-189) (domain or fragment),binds,binds,binds,binds,–,–,–
HA-PHB2 (190–299) (from UniProt Q99623 190-299) (domain or fragment),no binding,no binding,no binding,no binding,–,–,–
endogenous BIG3 (from UniProt Q5TH69 1-2177),–,–,–,–,binds,–,–
endogenous KPNA1 (from UniProt P52294 1-538),–,–,–,–,binds,binds,–
endogenous KPNA5 (from UniProt O15131 1-539),–,–,–,–,binds,binds,no binding
endogenous KPNA6 (from UniProt O60684 1-536),–,–,–,–,binds,binds,no binding
